Measured values as given in the antibiotic and cytotoxicity screens of Wong et al. (2023).
This is one part of the list.

What was measured:
HSkMC = human skeletal muscle cells; assay: cytotoxicity call (relative viability < 0.9); settings: 10 µM
HepG2 = assay: cytotoxicity call (relative viability < 0.9); settings: 10 µM
S. aureus RN4220 = assay: growth inhibition call (relative growth <= 0.2); settings: 50 µM

Cc1noc(C)c1NC(=O)N(C)C[C@@H]1OCCCC[C@@H](C)Oc2ccc(NC(=O)Nc3ccccc3)cc2C(=O)N([C@H](C)CO)C[C@@H]1C
inactive: cytotoxicity call (HSkMC) | cytotoxicity call (HepG2) | growth inhibition call (S. aureus RN4220)

CCCN(C)C[C@@H]1OCCCC[C@H](C)Oc2ccc(NC(=O)C3CCCCC3)cc2C(=O)N([C@H](C)CO)C[C@@H]1C
inactive: cytotoxicity call (HSkMC) | cytotoxicity call (HepG2) | growth inhibition call (S. aureus RN4220)

Cn1cc(C(=O)N2CCN(CC(N)=O)CC2)c2nn(-c3ccccc3)c(=O)c-2c1
inactive: cytotoxicity call (HSkMC) | cytotoxicity call (HepG2) | growth inhibition call (S. aureus RN4220)

C[C@@H]1CN([C@H](C)CO)C(=O)Cc2cc(NC(=O)c3ccncc3)ccc2O[C@H]1CN(C)Cc1ccc(Oc2ccccc2)cc1
inactive: cytotoxicity call (HSkMC) | cytotoxicity call (HepG2) | growth inhibition call (S. aureus RN4220)

COc1ccc(CN(C)C[C@H]2Oc3ccc(NC(=O)C4CC4)cc3CC(=O)N([C@H](C)CO)C[C@H]2C)cc1
inactive: cytotoxicity call (HSkMC) | cytotoxicity call (HepG2) | growth inhibition call (S. aureus RN4220)

C[C@@H]1CN([C@H](C)CO)S(=O)(=O)c2ccc(Br)cc2O[C@H]1CN(C)C(=O)c1cnccn1
inactive: cytotoxicity call (HSkMC) | cytotoxicity call (HepG2) | growth inhibition call (S. aureus RN4220)

CO[C@@H]1CN(C)C(=O)c2cc(NC(=O)C3CCCCC3)ccc2OC[C@@H](C)N(C(=O)Nc2ccc(C(F)(F)F)cc2)C[C@H]1C
inactive: cytotoxicity call (HSkMC) | cytotoxicity call (HepG2) | growth inhibition call (S. aureus RN4220)

C[C@H]1CN([C@@H](C)CO)C(=O)c2cccc(NC(=O)c3ccncc3)c2O[C@H]1CN(C)S(=O)(=O)c1cccs1
inactive: cytotoxicity call (HSkMC) | cytotoxicity call (HepG2) | growth inhibition call (S. aureus RN4220)

C[C@@H]1CN([C@@H](C)CO)C(=O)c2cc(NC(=O)NC3CCCCC3)ccc2O[C@@H](C)CCCCO[C@H]1CN(C)Cc1ccncc1
inactive: cytotoxicity call (HSkMC) | cytotoxicity call (HepG2) | growth inhibition call (S. aureus RN4220)

COc1ccc(S(=O)(=O)Nc2ccc3c(c2)C(=O)N([C@H](C)CO)C[C@H](C)[C@@H](CN(C)S(=O)(=O)c2cn(C)cn2)O3)cc1
inactive: cytotoxicity call (HSkMC) | cytotoxicity call (HepG2) | growth inhibition call (S. aureus RN4220)

CC(C)CC#Cc1ccc2c(c1)O[C@H](CN(C)C(=O)c1ccccn1)[C@@H](C)CN([C@H](C)CO)S2(=O)=O
inactive: cytotoxicity call (HSkMC) | cytotoxicity call (HepG2) | growth inhibition call (S. aureus RN4220)

C[C@@H](Sc1nc(N)cc(N)n1)C(=O)O
inactive: cytotoxicity call (HSkMC) | cytotoxicity call (HepG2) | growth inhibition call (S. aureus RN4220)

Cc1noc(C)c1NC(=O)N(C)C[C@@H]1OCCCC[C@H](C)Oc2ccc(NC(=O)Nc3ccc(C(F)(F)F)cc3)cc2C(=O)N([C@H](C)CO)C[C@@H]1C
inactive: cytotoxicity call (HSkMC) | cytotoxicity call (HepG2) | growth inhibition call (S. aureus RN4220)

NC1=N[C@H]2CS(=O)(=O)C[C@@H]2S1
inactive: cytotoxicity call (HSkMC) | cytotoxicity call (HepG2) | growth inhibition call (S. aureus RN4220)

C[C@@H]1CN([C@H](C)CO)C(=O)c2cc(NC(=O)Cc3ccccc3)ccc2O[C@@H](C)CCCCO[C@@H]1CN(C)Cc1ccc(C(=O)O)cc1
inactive: cytotoxicity call (HSkMC) | cytotoxicity call (HepG2) | growth inhibition call (S. aureus RN4220)

C[C@@H]1CCCCO[C@H](CN(C)S(=O)(=O)c2cccs2)[C@@H](C)CN([C@H](C)CO)C(=O)c2cc(NC(=O)Nc3ccc4c(c3)OCO4)ccc2O1
inactive: cytotoxicity call (HSkMC) | cytotoxicity call (HepG2) | growth inhibition call (S. aureus RN4220)

CO[C@H]1CN(C)C(=O)c2ccc(NS(=O)(=O)c3cn(C)cn3)cc2OC[C@@H](C)N(Cc2cccc(F)c2)C[C@H]1C
inactive: cytotoxicity call (HSkMC) | cytotoxicity call (HepG2) | growth inhibition call (S. aureus RN4220)

COCC(=O)N(C)C[C@@H]1Oc2cc(-c3ccc(C#N)cc3)ccc2S(=O)(=O)N([C@@H](C)CO)C[C@@H]1C
inactive: cytotoxicity call (HSkMC) | cytotoxicity call (HepG2) | growth inhibition call (S. aureus RN4220)

C[C@H](CO)N1C[C@H](C)[C@H](CN(C)S(=O)(=O)c2ccc(Cl)cc2)OCCCC[C@H](C)Oc2ccc(NC(=O)CCC(F)(F)F)cc2C1=O
inactive: cytotoxicity call (HSkMC) | cytotoxicity call (HepG2) | growth inhibition call (S. aureus RN4220)

O=C(C[C@H]1C=C[C@@H](NC(=O)Nc2cc(F)ccc2F)[C@H](CO)O1)NCCCN1CCOCC1
inactive: cytotoxicity call (HSkMC) | cytotoxicity call (HepG2) | growth inhibition call (S. aureus RN4220)

C[C@H]1CN([C@@H](C)CO)C(=O)c2cc(NS(=O)(=O)c3ccc(Cl)cc3)ccc2O[C@H]1CN(C)C(=O)Nc1ccc(C(F)(F)F)cc1
inactive: cytotoxicity call (HSkMC) | cytotoxicity call (HepG2) | growth inhibition call (S. aureus RN4220)

Cc1noc(C)c1NC(=O)N(C)C[C@H]1Oc2ccc(NC(=O)Cn3cnnn3)cc2C(=O)N([C@H](C)CO)C[C@@H]1C
inactive: cytotoxicity call (HSkMC) | cytotoxicity call (HepG2) | growth inhibition call (S. aureus RN4220)

C[N+](C)(C)CCCC[C@@H]1NC(=O)[C@H]2C[C@@H](C(=O)NCc3ccc(F)cc3)[C@@H](c3cccc(OCCO)c3)N2C1=O
inactive: cytotoxicity call (HSkMC) | cytotoxicity call (HepG2) | growth inhibition call (S. aureus RN4220)

Cc1noc(C)c1NC(=O)N(C)C[C@H]1OCCCC[C@@H](C)Oc2ccc(NS(=O)(=O)c3ccc(Cl)cc3)cc2C(=O)N([C@H](C)CO)C[C@@H]1C
inactive: cytotoxicity call (HSkMC) | cytotoxicity call (HepG2) | growth inhibition call (S. aureus RN4220)

C[C@@H]1CCCCO[C@H](CN(C)C(=O)Nc2ccc(C(F)(F)F)cc2)[C@@H](C)CN([C@@H](C)CO)C(=O)c2cc(NS(=O)(=O)c3cn(C)cn3)ccc2O1
inactive: cytotoxicity call (HSkMC) | cytotoxicity call (HepG2) | growth inhibition call (S. aureus RN4220)

C[C@H](CO)N1C[C@H](C)[C@@H](CN(C)C(=O)Nc2ccccc2C(F)(F)F)OCc2ccccc2-c2ccccc2C1=O
inactive: cytotoxicity call (HSkMC) | cytotoxicity call (HepG2) | growth inhibition call (S. aureus RN4220)

C[C@H](CO)N1C[C@H](C)[C@@H](CN(C)Cc2ccc(-c3ccccc3)cc2)Oc2ccc(NC(=O)Nc3ccc4c(c3)OCO4)cc2CC1=O
inactive: cytotoxicity call (HSkMC) | cytotoxicity call (HepG2) | growth inhibition call (S. aureus RN4220)

C[C@H](CO)N1C[C@H](C)[C@@H](CN(C)Cc2ccc(Cl)c(Cl)c2)Oc2ccc(NS(=O)(=O)c3ccccc3)cc2C1=O
inactive: cytotoxicity call (HSkMC) | cytotoxicity call (HepG2) | growth inhibition call (S. aureus RN4220)
